Measured values: publication PMC6919601, “Identification of Plasmodium dipeptidyl aminopeptidase allosteric inhibitors by high throughput screening” (PLoS ONE, 2019)
Out of some 110,000 compounds screened, about 230 (0.21%) showed an effect of 50% or more. The list shows a part of the results.

Each compound was assayed against DPAP1 (Plasmodium falciparum, UniProt Q8IIJ9) (assay: primary screen, percent inhibition; read by cleavage of a fluorogenic dipeptide substrate; higher = more effect of the substance).
Parameters: species or system P. falciparum D10 trophozoite lysates; single well
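Also: 30 min substrate incubation versus DMSO and 10 µM JCP410 controls.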

Sequence of DPAP1 (Q8IIJ9 whole entry, looked up): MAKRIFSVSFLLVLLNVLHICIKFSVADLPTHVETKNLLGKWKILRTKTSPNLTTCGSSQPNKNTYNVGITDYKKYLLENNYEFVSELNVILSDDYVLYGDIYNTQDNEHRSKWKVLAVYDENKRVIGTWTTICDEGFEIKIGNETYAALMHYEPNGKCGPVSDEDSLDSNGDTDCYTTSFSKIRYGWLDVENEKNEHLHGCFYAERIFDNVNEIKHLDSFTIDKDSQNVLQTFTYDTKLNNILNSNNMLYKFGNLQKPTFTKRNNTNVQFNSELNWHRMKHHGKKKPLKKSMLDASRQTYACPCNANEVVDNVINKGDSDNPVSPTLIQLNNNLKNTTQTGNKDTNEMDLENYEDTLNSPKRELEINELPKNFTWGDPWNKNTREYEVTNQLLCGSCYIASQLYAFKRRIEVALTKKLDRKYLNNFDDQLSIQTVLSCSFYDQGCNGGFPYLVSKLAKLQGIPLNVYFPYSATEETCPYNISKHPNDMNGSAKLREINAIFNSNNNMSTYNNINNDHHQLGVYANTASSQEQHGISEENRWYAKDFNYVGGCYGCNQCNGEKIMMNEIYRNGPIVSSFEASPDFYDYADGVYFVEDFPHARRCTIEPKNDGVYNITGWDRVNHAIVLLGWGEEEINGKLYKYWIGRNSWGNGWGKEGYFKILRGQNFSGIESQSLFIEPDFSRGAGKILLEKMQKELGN

**Q.** `O=C(COc1ccccc1Cl)Nc1ccc(F)c(Cl)c1` was tested. Which “% Inhibition @ 10 uM” value did it give?
**A.** 4.12%

**Q.** For `CCc1nn(C(C)C(=O)NC(C)c2ccc3c(c2)OCCO3)c(=O)c2cc3occc3n12` (centres unmarked), which “% Inhibition @ 10 uM” value is on record?
**A.** -5.63%

**Q.** For `O=C(NCc1ccccc1Cl)C1CCN(S(=O)(=O)c2cccs2)CC1`, which “% Inhibition @ 10 uM” value is on record?
**A.** -4.79%

**Q.** `Fc1cc2nc(S)n(Cc3ccccc3)c2cc1F` was tested. Which “% Inhibition @ 10 uM” value did it give?
**A.** 12.2%

**Q.** With `O=C1S/C(=C\c2c(NCC3CCCO3)nc3ccccn3c2=O)C(=O)N1Cc1ccccc1` (centres unmarked) as the compound, how does the “% Inhibition @ 10 uM” value read?
**A.** 2.25%

**Q.** Which “% Inhibition @ 10 uM” value does the source give for `CC(=O)NCCc1nc2ccccc2n1Cc1cccc(Cl)c1` here?
**A.** -0.551%

**Q.** Which “% Inhibition @ 10 uM” value does the source give for `O=C(Nc1nccs1)C1CCC(CNc2c(N3CCOCC3)c(=O)c2=O)CC1` (centres unmarked) here?
**A.** -0.447%

**Q.** How did the “% Inhibition @ 10 uM” value turn out when `COc1ccc(OCc2nc3ccccc3[nH]2)cc1` was run?
**A.** -2.66%

**Q.** With `O=S(=O)(Nc1ccccn1)c1ccc(-n2cccn2)cc1` as the compound, how does the “% Inhibition @ 10 uM” value read?
**A.** -1.26%

**Q.** Which “% Inhibition @ 10 uM” value does the source give for `CCc1[nH]nc2c1C(c1cccc(OC)c1OC)C(C#N)=C(N)O2` (centres unmarked) here?
**A.** -7.3%

**Q.** Which “% Inhibition @ 10 uM” value does the source give for `NC(=O)/C(=C\c1ccc2c(c1)OCO2)NC(=O)c1ccc(Br)o1` here?
**A.** -2.58%

**Q.** For `COc1ccccc1-c1nc(N)nc(N)n1`, which “% Inhibition @ 10 uM” value is on record?
**A.** 3.42%

**Q.** How did the “% Inhibition @ 10 uM” value turn out when `CC(C)C[C@H](NC(=O)c1cc(-c2ccc(Cl)cc2)cs1)C(=O)NCC#N` was run?
**A.** -1.82%

**Q.** How did the “% Inhibition @ 10 uM” value turn out when `Cn1nc(-c2ccc(C(=O)NCc3cccnc3)cc2)c2ccccc2c1=O` was run?
**A.** -1.43%

**Q.** With `CCOc1ccc(C(=O)Nc2sc(C)c(C)c2C#N)cc1` as the compound, how does the “% Inhibition @ 10 uM” value read?
**A.** 15.2%

**Q.** With `Cc1nnc(Nc2cc(Br)cc(Br)c2O)s1` as the compound, how does the “% Inhibition @ 10 uM” value read?
**A.** -2.12%

**Q.** For `Cc1ccc2onc(CC(=O)Nc3nc(C)cs3)c2c1`, which “% Inhibition @ 10 uM” value is on record?
**A.** -3.49%

**Q.** Which “% Inhibition @ 10 uM” value does the source give for `COc1ccc(C)cc1N(CC(=O)NCc1ccccn1)S(=O)(=O)c1ccccc1` here?
**A.** 1.52%

**Q.** With `CC1CC(C)CN(CCCNC(=O)Cn2ncc3c4ccccc4n(Cc4ccccc4)c3c2=O)C1` (centres unmarked) as the compound, how does the “% Inhibition @ 10 uM” value read?
**A.** 0.137%

**Q.** For `Cc1ccc(N2C(=O)C3C4C=CC(C4)C3(C)C2=O)cc1Cl` (centres unmarked), which “% Inhibition @ 10 uM” value is on record?
**A.** 4.08%

**Q.** For `O=C(c1sc(N2CCOCC2)nc1-c1ccccc1)c1c[nH]c2ccccc12`, which “% Inhibition @ 10 uM” value is on record?
**A.** 72.2%

**Q.** How did the “% Inhibition @ 10 uM” value turn out when `C/C(=C\c1ccccc1)CN1CCCN(C)CC1` was run?
**A.** -2%

**Q.** How did the “% Inhibition @ 10 uM” value turn out when `COc1ccc(CC(=O)Nc2nnc(C(C)(C)C)s2)cc1` was run?
**A.** 1.58%

**Q.** For `O=c1c2c(-c3ccccc3)csc2nc2c3ccccc3c(N3CCOCC3)nn12`, which “% Inhibition @ 10 uM” value is on record?
**A.** -3.71%

**Q.** Which “% Inhibition @ 10 uM” value does the source give for `Nc1c(C(=O)NCCc2c[nH]c3ccccc23)sc2nc(-c3cccnc3)ccc12` here?
**A.** 4.33%

**Q.** How did the “% Inhibition @ 10 uM” value turn out when `N#Cc1ccc(/C=C2/NC(=O)N(Cc3ccccc3F)C2=O)cc1` was run?
**A.** -3.63%

**Q.** With `CC(=O)Nc1ccccc1/C=C/c1ccc2c(C)cc(C)c(O)c2n1` as the compound, how does the “% Inhibition @ 10 uM” value read?
**A.** 4.28%

**Q.** With `COc1cccc(CNC(=O)Cn2sc3ccccc3c2=O)c1` as the compound, how does the “% Inhibition @ 10 uM” value read?
**A.** -5.95%

**Q.** For `O=c1oc2ccccc2n1Cc1ccc(Cl)cc1Cl`, which “% Inhibition @ 10 uM” value is on record?
**A.** 1.4%

**Q.** For `CCCN1C(=O)/C(=C\c2ccncc2)S/C1=N/c1ccccc1`, which “% Inhibition @ 10 uM” value is on record?
**A.** 0.389%

**Q.** How did the “% Inhibition @ 10 uM” value turn out when `CN(CCc1ccccn1)Cc1cccc(F)c1` was run?
**A.** 4.55%

**Q.** For `COc1ccc(C(=O)Nc2ccc(N3CCN(C(=O)c4ccco4)CC3)cc2)cc1`, which “% Inhibition @ 10 uM” value is on record?
**A.** -5.32%

**Q.** With `Cc1nc2c(C(=O)NCCc3ccccc3)cnn2c(O)c1Cc1cccc(Cl)c1` as the compound, how does the “% Inhibition @ 10 uM” value read?
**A.** 0.723%

**Q.** `Cc1ccc(C(=O)N2CCCC(C)C2)cc1[N+](=O)[O-]` (centres unmarked) was tested. Which “% Inhibition @ 10 uM” value did it give?
**A.** -1.48%

**Q.** How did the “% Inhibition @ 10 uM” value turn out when `CC(NC(=O)NCc1noc2ccccc12)c1ccccc1` (centres unmarked) was run?
**A.** 1.93%

**Q.** For `COc1ccc2[nH]c3c(c2c1)CCNC3c1cccc(O)c1` (centres unmarked), which “% Inhibition @ 10 uM” value is on record?
**A.** -4.12%

**Q.** With `O=C(Nc1cccc(CCc2ccccn2)c1)NC1CCCCC1` as the compound, how does the “% Inhibition @ 10 uM” value read?
**A.** -1.98%

**Q.** Which “% Inhibition @ 10 uM” value does the source give for `COCCN1C(=O)c2ccccc2C(C(=O)N2CC(C)CC(C)C2)C1c1c[nH]c2ccccc12` (centres unmarked) here?
**A.** 9.11%

**Q.** How did the “% Inhibition @ 10 uM” value turn out when `COc1ccccc1/C=C/c1nn2c(-c3ccncc3)nnc2s1` was run?
**A.** 4.47%

**Q.** For `Cc1c2ccccc2cc[n+]1CCCS(=O)(=O)O`, which “% Inhibition @ 10 uM” value is on record?
**A.** 1.25%

**Q.** How did the “% Inhibition @ 10 uM” value turn out when `CCCN(CCO)Cc1ccc(Br)s1` was run?
**A.** 1.38%

**Q.** `CCCCCOC(=O)c1ccc2c(c1)C(=O)N(c1ccc(OC)cc1)C2=O` was tested. Which “% Inhibition @ 10 uM” value did it give?
**A.** 0.912%

**Q.** Which “% Inhibition @ 10 uM” value does the source give for `Cc1ccc2[nH]c3c(c2c1)CCCC3NC1CCCCC1` (centres unmarked) here?
**A.** -0.482%

**Q.** Which “% Inhibition @ 10 uM” value does the source give for `CC[C@H](C[C@H](NC(=O)OCc1ccccc1)C(=O)NCC#N)c1ccccc1` here?
**A.** -6.56%

**Q.** For `O=C(O)C1CC=CCC1C(=O)N1CCCc2ccccc21` (centres unmarked), which “% Inhibition @ 10 uM” value is on record?
**A.** 5.26%

**Q.** With `CC1CCN(S(=O)(=O)c2ccc(NC(=O)CC(C)(C)C)cc2)CC1` as the compound, how does the “% Inhibition @ 10 uM” value read?
**A.** 0.709%

**Q.** `COc1cc(CN2CCN(c3ccccc3F)CC2)cc(OC)c1OC` was tested. Which “% Inhibition @ 10 uM” value did it give?
**A.** -2.81%

**Q.** With `CSc1nnc(NC(=O)Cc2coc3ccc(C)cc23)s1` as the compound, how does the “% Inhibition @ 10 uM” value read?
**A.** -2.4%

**Q.** `CC(=O)c1sc2nc3ccccc3n2c1C` was tested. Which “% Inhibition @ 10 uM” value did it give?
**A.** 2.33%

**Q.** For `N#C/C(=C\c1nc2ccccc2[nH]1)c1ccc(N2CCCCC2)cc1`, which “% Inhibition @ 10 uM” value is on record?
**A.** 3.48%
